According to PMC12136788:
The other results are listed elsewhere or left out.

T1: UNK ZnF1-6 (called full-length) (human, UniProt Q9C0B0 30-357)
T1 sequence: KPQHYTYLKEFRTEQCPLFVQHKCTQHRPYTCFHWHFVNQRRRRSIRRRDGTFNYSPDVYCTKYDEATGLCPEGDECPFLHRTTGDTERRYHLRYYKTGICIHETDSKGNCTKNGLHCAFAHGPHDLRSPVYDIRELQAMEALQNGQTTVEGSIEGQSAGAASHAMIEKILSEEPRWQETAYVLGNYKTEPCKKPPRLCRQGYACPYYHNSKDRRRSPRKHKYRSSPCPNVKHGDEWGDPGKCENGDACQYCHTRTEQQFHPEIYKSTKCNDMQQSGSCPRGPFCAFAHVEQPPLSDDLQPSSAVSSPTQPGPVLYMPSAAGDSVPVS

B1: chr17:50110931:50111032:+|3pUTR|ENSG00000005882|unk|FALSE|unique (ssRNA)
RNA: GGGAGUUCUACAGUCCGACGAUCUGUGCCCAGACAUGUGUGCUCAGGGUGGCUUUCUCCCUAGGACCUUCUGUGUAUAUAGUUAGUUUUAUAACCCUGAAUGCCCCCACCCUUCCCCUAAGCACACAGGGGUUAAAGCUGUGUCAACAGAGGAUUGAGCAUCA
B2: chr6:133987709:133987810:+|3pUTR|ENSG00000028839|unk|FALSE|unique (ssRNA)
RNA: GGGAGUUCUACAGUCCGACGAUCAAUAACAAAUAGGAAUUUUUUUUCUUGCAGAUUAGAAAUAAAAACGUGUAUAUAAACUCUAGGGAACCAGACUAGAAGUUUAUAGAUAAAGGAUAAUGUUUUAUGUUGCUAAUUUAAUAUCAACAGAGGAUUGAGCAUCA
B3: ENSG00000131504:stop:overlap|stop_codon|ENSG00000131504|stop_codon|NA|stop_codon (ssRNA)
RNA: GGGAGUUCUACAGUCCGACGAUCAGGAGGAGGAGACCUUUAAAUUGCCAACAGGAAGGCCGGGUGUGCAGUCACAUCUCUGCUAGCUUCGGAGCUGACCAAGGAUGAUGCCAUGGCUGCUGUUCCUGCCAAGGUGUCCAAGAACAACAGAGGAUUGAGCAUCA
B4: chr10:96982068:96982170:+|CDS|ENSG00000196233|unk|total|mutant (ssRNA)
RNA: GGGAGUUCUACAGUCCGACGAUCUCAGCAUUGGCAUCAGAGGCAGUUUUCACUCCUAAGCAGACCCUUACAAUUCCAGCCCCCCGACAUACAGCCGAUGUGCAGCUUCCCAGAGAAGACAACCCUGAAGAACCCCGCAAGGAACAACAGAGGAUUGAGCAUCA
B5: chr6:21231557:21231658:+|3pUTR|ENSG00000145996|msi1|total|mutant (ssRNA)
RNA: GGGAGUUCUACAGUCCGACGAUCAAGCCGCUGGGAUUACAGGCAUGCGCCACCAAGCCCAGACAAUUUUUUUGUGUUUUCAGCCGAGACGGAGUUUCACCAUGUUGGCCAGGCCCGUCUCGAACUCCUGACCUCAAGUGAUCCCAACAGAGGAUUGAGCAUCA
B6: chr5:72207278:72207408:+|3pUTR|ENSG00000131711|msi1_unk|total|mutant (ssRNA)
RNA: GGGAGUUCUACAGUCCGACGAUCAGAGAACAAUGACCUCAUUUUAUUUUCUAUGUCCGUUAUUUAUUUCAAAAUUAACAUUUCCGUUGAUUUUUGUCUGAUAAGUCUAUGUUUUGCACUGCUAACUAUGAUGAGGGUUUAAAACAACAGAGGAUUGAGCAUCA
B7: chr19:7926739:7926850:-|3pUTR|ENSG00000104980|unk|total|mutant (ssRNA)
RNA: GGGAGUUCUACAGUCCGACGAUCAGGGUGGGACCCGGGACCCGCGGCUCAGUGGCCCGCCCGCCACGUCAGCCAAGCCACUUCCGGUCCAUUUUUUAAUUUUAACAGUGCUCUUCCAUCUUGUGCAUAAGCCUGAGAUUUGGACAACAGAGGAUUGAGCAUCA
B8: chr5:138184526:138184629:+|CDS|ENSG00000112984|unk|total|mutant (ssRNA)
RNA: GGGAGUUCUACAGUCCGACGAUCGUGCAUGCCCCACCUAUGCAACUGGGAUUCCCAUCCCUGCACUCGUUCAUCAAGGAACACCGUCUUCAGGUAUCCCCCAGCUCCGAGAAAGGGGCUAAGGCAGACACAGGCCUUGAUGAUCAACAGAGGAUUGAGCAUCA
B9: chr8:63210610:63210711:+|3pUTR|ENSG00000185728|msi1|FALSE|unique (ssRNA)
RNA: GGGAGUUCUACAGUCCGACGAUCCAUGAAGUAAAAAUUUAUUACUCUAGGUAUUCACUAGCUAAAUAAACAUAGUUCUUGUUUAGCAAGCAUAUGUUGUUCCUCAGCUCUUUUCUCCAGCUUUUGCAGUGUCCUGGCAUCCUUCAACAGAGGAUUGAGCAUCA
B10: chr1:226632358:226632459:-|3pUTR|ENSG00000143772|msi1|FALSE|unique (ssRNA)
RNA: GGGAGUUCUACAGUCCGACGAUCUCAAGCCAUUUUGCCACUCGCUUCCCUGCCAUCUGGCCCUUCCCUUUGUCUCAGUGGGAUAGAUGGAUUGUGAAAUGGAAUCUCCCAGAACCCCUGCCCUGGCAGCCUGGAAGACCGUGCCAACAGAGGAUUGAGCAUCA
B11: chr15:65118290:65118391:-|3pUTR|ENSG00000090470|msi1|total|mutant (ssRNA)
RNA: GGGAGUUCUACAGUCCGACGAUCACUUCCUUGUGUGUUGAUGGGUAAGUACACUCAAACACUGAAUACAGGUGUGUGAUGGGCCGAUUUCACAGCCCUUCUACUAACCGUGAGUGUGAAGGCAAGCUUGAUGCAAAACCUCCUCAACAGAGGAUUGAGCAUCA
B12: chr2:33399154:33399255:+|3pUTR|ENSG00000049323|msi1|total|mutant (ssRNA)
RNA: GGGAGUUCUACAGUCCGACGAUCAAGUACUUUAUAUUUUCAGUGUUUUGUCUGAUUUUAAUGUCCGUUCUCCGCCAAGCUGCCCGCAGGUGUUAAUUGGAUCCCUUUCCUUCACUGAAAUGGAAGAGUUUAUAAGCUUACGUUCAACAGAGGAUUGAGCAUCA
B13: ENSG00000124766:be:win_901|CDS|ENSG00000124766|bound_else_gene|NA|bound_elsewhere_windowed (ssRNA)
RNA: GGGAGUUCUACAGUCCGACGAUCGGCCUGGGCACGUCGUCGUCGCCCGUGGGCGGCGUGGGCGCGGGAGCCGACCCCAGCGACCCCCUGGGCCUGUACGAGGAGGAGGGCGCGGGCUGCUCGCCCGACGCGCCCAGCCUGAGCCAACAGAGGAUUGAGCAUCA
B14: chr6:89631235:89631336:+|3pUTR|ENSG00000135299|msi1|FALSE|unique (ssRNA)
RNA: GGGAGUUCUACAGUCCGACGAUCUGAAGUUUGAAAGCUCAGAUUAAGCAAGCCAUGCCAAGAAACUGGACGAUGUGUAAGCCUAGACUCUAAAAUUCAAGAUGUGUGAAAUAAUAUAAGUCAAAAGCAAGAAAAACGUAAUCCCAACAGAGGAUUGAGCAUCA
B15: chr5:136174412:136174513:+|CDS|ENSG00000113658|unk|total|mutant (ssRNA)
RNA: GGGAGUUCUACAGUCCGACGAUCUAUGUUGGUGGAGAGGUGUAUGCGGAAUGCCUCAGUGACAGCAGCAUAUUUGUACAGAGCCGGAACUGCAACUUUCAUCAUGGCUUUCAUCCCACCACUGUCUGUAAGAUUCCCAGCAGCCAACAGAGGAUUGAGCAUCA
B16: chr16:74623592:74623693:-|3pUTR|ENSG00000168411|msi1|total|mutant (ssRNA)
RNA: GGGAGUUCUACAGUCCGACGAUCCCAUUAUUGUAUGUUGGAAAUUCUUAUUUUCUUUAUUUUCUGUGUGACUUUCUGGACCUCCGAGAGUGUCCUCUCAUCAUCCCGGAUGUGAGUGGGCAUCAAGCAUUUUCUGGGGAAUAUCAACAGAGGAUUGAGCAUCA
B17: chr1:67426168:67426278:-|CDS|ENSG00000142864|unk|FALSE|unique (ssRNA)
RNA: GGGAGUUCUACAGUCCGACGAUCAUAAGACGAGUUGGAAGAAGACCUGAUCAACAACUUCAGGGUGAAGGGAAAAUAAUUGAUAGAAGACCAGAAAGGCGACCACCUCGUGAACGAAGAUUCGAAAAGCCACUUGAAGAAAAGCAACAGAGGAUUGAGCAUCA
B18: ENSG00000145990:stop:overlap|stop_codon|ENSG00000145990|stop_codon|NA|stop_codon (ssRNA)
RNA: GGGAGUUCUACAGUCCGACGAUCUGAGCCCCGCCUACCUGAUCAGCGAGGCCAUGCGCCGCAGCAGGAUGUCCCUCUACUGUUAGCACAGAUUGAGAACCUCGGGGACUUGAGCCUUCUGCAGGGGAUGUCCACAGAGAGGGACAACAGAGGAUUGAGCAUCA
B19: chr11:46383557:46383658:+|3pUTR|ENSG00000110492|msi1_unk|FALSE|overlapping (ssRNA)
RNA: GGGAGUUCUACAGUCCGACGAUCCCACGCCCUCCCUCUCCCAGGCCCGAGAUGUGACCCACCAGUGCCUUCUGUCUGCUCGUUAGCUUUAAUCAAUCAUGCCCUGCCUUGUCCCUCUCACUCCCCAGCCCCACCCCUAAGUGCCAACAGAGGAUUGAGCAUCA
B20: chr17:63423787:63423888:+|3pUTR|ENSG00000170921|msi1|FALSE|bound_elsewhere (ssRNA)
RNA: GGGAGUUCUACAGUCCGACGAUCCUAACUCAAGCCCCAGCCUCUUUCCACACUCCCUGAUACCUAAGGACUGCUUUCUCAGCUAGACCAGGGUGGGCAUCAGCGACGCCUUCUCAGCUAGACCAGGGUAGGCAUCAGCGUCCUCAACAGAGGAUUGAGCAUCA
B21: chr11:102396659:102396760:-|3pUTR|ENSG00000152558|msi1_unk|total|mutant (ssRNA)
RNA: GGGAGUUCUACAGUCCGACGAUCCUUUUUCUCUGUAUGUAAGCCGUAUAAUUUGUUACUUUCAAAUACCCGUACUUUGAAUGCCGGUUUUUUUGUUGUUGUUAUCUAUAAAAAUUGAGGGAAAUGGUUAUGCAAAAAAAUAUUCAACAGAGGAUUGAGCAUCA
B22: chr16:46798953:46799054:-|3pUTR|ENSG00000155330|unk|total|mutant (ssRNA)
RNA: GGGAGUUCUACAGUCCGACGAUCUCUAUAUUUUUUUCUUUGCCUUAUUGCACUGGUUGGGACUUUUUGCCUUGAUCCAGUUGCCGGGGGGAAACAUUCAGUCAUUAAGCAUUAAAUAACUUUGUUGUUGUUGUGGGCUUGAAACAACAGAGGAUUGAGCAUCA

target: T1, UNK ZnF1-6 (called full-length); test: nsRBNS (natural sequence RNA bind-n-seq); RBNS binding buffer (assumed for nsRBNS): 25 mM Tris pH 7.5, 150 mM KCl, 3 mM MgCl2, 0.01% Triton X-100, 500 ug/ml BSA, 20 U/ml SUPERase-In, 4 C; UNK is unkempt and MSI1 is Musashi-1; names of the RNAs are library labels; protein concentration not given here; high values mean tight binding

| Binder | binding signal |
| --- | --- |
| B1 | 6.79 enrichment R |
| B2 | 2.44 enrichment R |
| B3 | 1.71 enrichment R |
| B4 | 0.952 enrichment R |
| B5 | 0.552 enrichment R |
| B6 | 0.579 enrichment R |
| B7 | 0.743 enrichment R |
| B8 | 0.469 enrichment R |
| B9 | 2.01 enrichment R |
| B10 | 2.42 enrichment R |
| B11 | 0.318 enrichment R |
| B12 | 0.381 enrichment R |
| B13 | 6.13 enrichment R |
| B14 | 0.227 enrichment R |
| B15 | 0.849 enrichment R |
| B16 | 0.651 enrichment R |
| B17 | 0.71 enrichment R |
| B18 | 0.325 enrichment R |
| B19 | 3.87 enrichment R |
| B20 | 0.982 enrichment R |
| B21 | 0.897 enrichment R |
| B22 | 0.654 enrichment R |
